The list shows a part of the results. The energies were worked out here from pooled read counts, against the library average; single values are noisy.

Here are results for 115 sequences from the BET-seq Pho4 binding data (Le et al. 2018).

The target of this experiment is T1, Pho4 (S. cerevisiae) (UniProt P07270).
T1 sequence: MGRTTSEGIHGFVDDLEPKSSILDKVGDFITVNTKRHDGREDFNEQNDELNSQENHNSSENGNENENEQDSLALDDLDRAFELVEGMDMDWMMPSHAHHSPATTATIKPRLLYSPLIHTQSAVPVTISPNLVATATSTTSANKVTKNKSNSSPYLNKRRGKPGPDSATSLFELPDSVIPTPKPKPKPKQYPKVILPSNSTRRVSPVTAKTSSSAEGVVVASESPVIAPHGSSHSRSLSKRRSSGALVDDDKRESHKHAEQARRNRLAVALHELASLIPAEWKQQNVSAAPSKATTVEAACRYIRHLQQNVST
Nature of the experiment: relative binding free energy (BET-seq); higher = weaker binding. As to conditions: reference: library average.
As to TAGGACACGTGTGAGA, the “relative binding free energy” value amounted to 0.13 kcal/mol.

Regarding TTGTGCACGTGTACGT, the “relative binding free energy” value is -0.02 kcal/mol.

As for TGGGTCACGTGATAAG, the “relative binding free energy” value was 0.28 kcal/mol.

Turning to ATCGGCACGTGGAATG, the “relative binding free energy” value is -0.04 kcal/mol.

On to GTTGACACGTGCGGAT, for which the “relative binding free energy” value stood at 0.16 kcal/mol.

Regarding GATTTCACGTGGTGGC, the “relative binding free energy” value was found to be 0.32 kcal/mol.

Take GTTTACACGTGGTGAT: the “relative binding free energy” value amounted to 0.13 kcal/mol.

For TAGGGCACGTGGGCGT, the “relative binding free energy” value is -0.33 kcal/mol.

With TCGTTCACGTGTTTCG, the “relative binding free energy” value is 0.38 kcal/mol.

For the sequence AAGAACACGTGTGGGA, the “relative binding free energy” value was -0.01 kcal/mol.

As for GAGTTCACGTGTTGTG, the “relative binding free energy” value was found to be 0.32 kcal/mol.

On to GTTTCCACGTGGGAGG, for which the “relative binding free energy” value was 0 kcal/mol.

On to GACGGCACGTGGGCGA, for which the “relative binding free energy” value was -0.1 kcal/mol.

As to GTTGGCACGTGCTTTA, the “relative binding free energy” value is -0.15 kcal/mol.

Take TTGAACACGTGTCTGT: the “relative binding free energy” value is 0.02 kcal/mol.

Take AGGAGCACGTGTGTGG: the “relative binding free energy” value is -0.03 kcal/mol.

Consider AGGTACACGTGAAGTA, for which the “relative binding free energy” value amounted to 0.22 kcal/mol.

Take TGTGTCACGTGATGGA: the “relative binding free energy” value came to 0.16 kcal/mol.

With TGGCACACGTGGCGGT, the “relative binding free energy” value stood at 0.05 kcal/mol.

Turning to TAAGACACGTGTCGGG, the “relative binding free energy” value was found to be 0.08 kcal/mol.

As for AGTGTCACGTGCATGG, the “relative binding free energy” value is 0.13 kcal/mol.

AGGTGCACGTGTATGC: the “relative binding free energy” value is -0.02 kcal/mol.

With GTAGGCACGTGTACGT, the “relative binding free energy” value was determined as 0.09 kcal/mol.

As to ATGGTCACGTGGCTAA, the “relative binding free energy” value was found to be 0.18 kcal/mol.

On to ATTTTCACGTGGTGTG, for which the “relative binding free energy” value came to 0.25 kcal/mol.

As to AATTGCACGTGGTGGT, the “relative binding free energy” value was -0.12 kcal/mol.

TAGGGCACGTGATTTC: the “relative binding free energy” value came to 0.02 kcal/mol.

Turning to GCGGGCACGTGATGTG, the “relative binding free energy” value is -0.02 kcal/mol.

As for GGAACCACGTGTTGTG, the “relative binding free energy” value is -0.01 kcal/mol.

With ATTGTCACGTGGATAT, the “relative binding free energy” value is 0.02 kcal/mol.

ACTGGCACGTGGGAGT: the “relative binding free energy” value is -0.23 kcal/mol.

In the case of AGGGCCACGTGGTTAA, the “relative binding free energy” value was -0.13 kcal/mol.

Take AGTTCCACGTGCAGGG: the “relative binding free energy” value is 0.1 kcal/mol.

As to ATACGCACGTGCGTGT, the “relative binding free energy” value was -0.07 kcal/mol.

In the case of GTGAACACGTGGGTAG, the “relative binding free energy” value was -0.09 kcal/mol.

Consider CATCGCACGTGGAGTG, for which the “relative binding free energy” value is 0.03 kcal/mol.

As to AGAGTCACGTGATTGG, the “relative binding free energy” value is 0.29 kcal/mol.

For the sequence CCAGGCACGTGATGGG, the “relative binding free energy” value was -0.07 kcal/mol.

On to GGTGACACGTGGGACG, for which the “relative binding free energy” value was found to be 0.03 kcal/mol.

As to TCGTTCACGTGTGGAG, the “relative binding free energy” value turned out to be 0.19 kcal/mol.

Consider ATAGGCACGTGGTGAT, for which the “relative binding free energy” value was -0.25 kcal/mol.

For the sequence TTGAGCACGTGGATTG, the “relative binding free energy” value is -0.06 kcal/mol.

For ATCGGCACGTGTTGTT, the “relative binding free energy” value is -0.02 kcal/mol.

Turning to GTGTTCACGTGAGCCG, the “relative binding free energy” value is 0.42 kcal/mol.

Regarding CGGTTCACGTGGCGGC, the “relative binding free energy” value worked out at 0.28 kcal/mol.

Regarding CAGGTCACGTGCGTGC, the “relative binding free energy” value turned out to be 0.19 kcal/mol.

As to TTATGCACGTGTGATG, the “relative binding free energy” value is 0.09 kcal/mol.

For GGGGTCACGTGTTGGT, the “relative binding free energy” value was 0.22 kcal/mol.

For AGTCGCACGTGGGTTA, the “relative binding free energy” value was -0.29 kcal/mol.

Take GTACTCACGTGGTAGG: the “relative binding free energy” value was found to be 0.18 kcal/mol.

Take GTTAGCACGTGAGTTG: the “relative binding free energy” value came to 0.23 kcal/mol.

AGTAACACGTGGATGA: the “relative binding free energy” value came to 0.01 kcal/mol.

As to GGTCTCACGTGAGATT, the “relative binding free energy” value was determined as 0.48 kcal/mol.

In the case of TGTTTCACGTGAAGTT, the “relative binding free energy” value amounted to 0.53 kcal/mol.

For the sequence ATTTACACGTGCTTGG, the “relative binding free energy” value was -0.07 kcal/mol.

Turning to GCGGGCACGTGGTTTT, the “relative binding free energy” value worked out at 0 kcal/mol.

Turning to TAGAACACGTGGGGTC, the “relative binding free energy” value was -0.01 kcal/mol.

Regarding GGTGGCACGTGTCTAT, the “relative binding free energy” value came out at 0.03 kcal/mol.

For the sequence GGGGGCACGTGGCTGT, the “relative binding free energy” value was -0.17 kcal/mol.

In the case of TAGGTCACGTGCCGTG, the “relative binding free energy” value is -0.01 kcal/mol.

With AGAGGCACGTGTTAGG, the “relative binding free energy” value is -0.03 kcal/mol.

In the case of AGGGACACGTGTGTCA, the “relative binding free energy” value is -0.05 kcal/mol.

For ATTAGCACGTGATGCG, the “relative binding free energy” value turned out to be 0 kcal/mol.

For GTCTTCACGTGAGATT, the “relative binding free energy” value was determined as 0.36 kcal/mol.

With AGTCGCACGTGTGTAT, the “relative binding free energy” value stood at 0.11 kcal/mol.

Regarding TAATACACGTGGGTGG, the “relative binding free energy” value was -0.13 kcal/mol.

In the case of GGTCGCACGTGAGTCG, the “relative binding free energy” value came to 0.22 kcal/mol.

As to GAAGGCACGTGGGTGC, the “relative binding free energy” value was -0.19 kcal/mol.

Regarding CTGTACACGTGGGTGG, the “relative binding free energy” value is -0.11 kcal/mol.

As for GAGTGCACGTGATGCT, the “relative binding free energy” value is 0.25 kcal/mol.

Turning to AGTCTCACGTGGGCGT, the “relative binding free energy” value was -0.02 kcal/mol.

For GGCTTCACGTGGGGTG, the “relative binding free energy” value amounted to 0.22 kcal/mol.

For TTGAACACGTGGAGAT, the “relative binding free energy” value came to 0.01 kcal/mol.

CTGGTCACGTGTTGCT: the “relative binding free energy” value amounted to 0 kcal/mol.

Take TCAAGCACGTGGGTAT: the “relative binding free energy” value was -0.13 kcal/mol.

Regarding TCGGGCACGTGTGCAG, the “relative binding free energy” value worked out at 0 kcal/mol.

Consider TTTTACACGTGTGCTA, for which the “relative binding free energy” value is 0.1 kcal/mol.

For TAAGTCACGTGGAGTA, the “relative binding free energy” value is 0.07 kcal/mol.

For the sequence TCAAGCACGTGATGTG, the “relative binding free energy” value came to 0.02 kcal/mol.

Consider GTGGACACGTGGGACG, for which the “relative binding free energy” value came out at 0.03 kcal/mol.

In the case of ATAATCACGTGATTAT, the “relative binding free energy” value was determined as 0.22 kcal/mol.

As for GGTATCACGTGGGTGT, the “relative binding free energy” value was 0.04 kcal/mol.

As for CAGAACACGTGGGGTA, the “relative binding free energy” value turned out to be 0.04 kcal/mol.

On to GGGAGCACGTGGGAAT, for which the “relative binding free energy” value was -0.12 kcal/mol.

Turning to ATTGACACGTGATGAA, the “relative binding free energy” value amounted to 0.29 kcal/mol.

Regarding AGGATCACGTGGGTCT, the “relative binding free energy” value came out at 0 kcal/mol.

As to CTGTTCACGTGACAGT, the “relative binding free energy” value amounted to 0.33 kcal/mol.

Take TGTAGCACGTGCGGGG: the “relative binding free energy” value was -0.14 kcal/mol.

Turning to GGCCGCACGTGAGGGG, the “relative binding free energy” value came to 0.23 kcal/mol.

Take ATGGGCACGTGGCTCG: the “relative binding free energy” value is -0.01 kcal/mol.

In the case of GGGGTCACGTGTACTG, the “relative binding free energy” value came out at 0.26 kcal/mol.

For the sequence TTCGGCACGTGGTGGA, the “relative binding free energy” value was -0.16 kcal/mol.

With AGCGTCACGTGTTAAT, the “relative binding free energy” value is 0.06 kcal/mol.

TTTTCCACGTGCAGGT: the “relative binding free energy” value amounted to 0.13 kcal/mol.

In the case of AGAGTCACGTGCGGGT, the “relative binding free energy” value worked out at 0.05 kcal/mol.

As to TTGGTCACGTGGGTCC, the “relative binding free energy” value is -0.06 kcal/mol.

Turning to GTTGACACGTGGGCTT, the “relative binding free energy” value stood at 0.05 kcal/mol.

Regarding CGGGTCACGTGAGTGT, the “relative binding free energy” value came out at 0.23 kcal/mol.

On to GTATGCACGTGGCCGT, for which the “relative binding free energy” value is -0.06 kcal/mol.

For TACTGCACGTGTTTTG, the “relative binding free energy” value is 0.01 kcal/mol.

For the sequence GGTTGCACGTGATAAG, the “relative binding free energy” value was determined as 0.12 kcal/mol.

For GGTATCACGTGGGATA, the “relative binding free energy” value was determined as 0.06 kcal/mol.

Consider AGGAACACGTGTGAAT, for which the “relative binding free energy” value came out at 0.18 kcal/mol.

As to TCTGGCACGTGTTCTG, the “relative binding free energy” value worked out at 0.08 kcal/mol.

Consider TTGTCCACGTGGAATG, for which the “relative binding free energy” value stood at 0.01 kcal/mol.

As to AGTTCCACGTGTGGTC, the “relative binding free energy” value came to 0.09 kcal/mol.

For the sequence TATGTCACGTGAGACT, the “relative binding free energy” value turned out to be 0.28 kcal/mol.

Take ATCCACACGTGTGGGG: the “relative binding free energy” value was 0.19 kcal/mol.

In the case of GTGGACACGTGAGGCT, the “relative binding free energy” value was 0.23 kcal/mol.

TTGTCCACGTGAAGGT: the “relative binding free energy” value came to 0.25 kcal/mol.

In the case of AGGGTCACGTGAGAGC, the “relative binding free energy” value amounted to 0.24 kcal/mol.

Take TTGGGCACGTGTACGA: the “relative binding free energy” value was -0.02 kcal/mol.

Consider GGAGTCACGTGGTTTC, for which the “relative binding free energy” value amounted to 0.27 kcal/mol.

As to GAGGTCACGTGAGTGC, the “relative binding free energy” value came out at 0.38 kcal/mol.

In the case of GAGTTCACGTGTTTCT, the “relative binding free energy” value turned out to be 0.42 kcal/mol.
